The RNAGym collection of RNA variant scans (doi:10.1093/nar/gkz1192)
The source gives no read counts; variants with many changes may rest on few reads.

B1: CPEB3 Ribozyme (parent)
chain: UAACAGGGGGCCACAGCAGAAGCGUUCACGUCGCAGCCCCUGUCAGAUUCUGGUGAAUCUGCGAAUUCUGCUGUAUAUCUC

Variants of: B1
Experiment: self-cleavage, relative activity (ratio to wild type); higher = more cleavage; in vitro, sequencing
Method in brief: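 Relative activity compares each variant's cleaved/total read fraction with that of the unmutated ribozyme. To get these fractions, barcoded CPEB3 ribozyme libraries from rounds of error-prone PCR were transcribed with T7 RNA polymerase for 5 hours at 37°C and then given 15 min of DNase I treatment before EDTA was added. The RNAs were reverse transcribed with template switching and sequenced on Illumina, and DNA sequencing linked barcodes to variants. A minimum of 5 reads applied, and three batches were averaged.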

Row | Variant | self-cleavage
1 | A15G G30A A75G | 0.07
2 | A15G G30A U31A C40A U69A | 0.09
3 | A15G G30A U43G A64U | 0.25
4 | A15G G30U C32U U41C U48C U67C | 0.05
5 | A15G G30U U67A | 0.17
6 | A15G G33A A35G A56U U58A U67A | 0.11
7 | A15G G33A A57G | 0.07
8 | A15G G33A A64G C71G U78A | 0.04
9 | A15G G33A C62U | 0.31
10 | A15G G33A U54C | 0.16
11 | A15G G33C A35U U43G A56G | 0.07
12 | A15G G33C C44A A56G C62G U69A | 0.1
13 | A15G G33U U76A | 0.12
14 | A15G G36A A56U A57G U58C | 0.11
15 | A15G G36A U49C U58C A77G | 0.06
16 | A15G G42A C59A | 0.24
17 | A15G G42A U43C | 0.27
18 | A15G G42A U51C G63A C79A | 0.45
19 | A15G G42A U69A A75G | 0.48
20 | A15G G42C A47U U51A G63U U80C | 0.34
21 | A15G G46A U54C A75G | 0.04
22 | A15G G52U U67C U72A | 0.18
23 | A15G G52U U69C | 0.14
24 | A15G G61C U72C | 0.45

Row | Variant | self-cleavage
25 | A15G G63A U67C | 0.21
26 | A15G G63U U72C | 1.25
27 | A15G G70A U80C | 0.32
28 | A15G G73A U74A | 1.17
29 | A15G U25A A35G U66C A75G | 0.02
30 | A15G U25A C29U | 0.25
31 | A15G U25A U31G A35U A47G A57G U58C | 0
32 | A15G U25A U49C | 0.07
33 | A15G U25A U51C U67C | 0.04
34 | A15G U25A U58C | 0.21
35 | A15G U25A U67A | 0.2
36 | A15G U25A U69C | 0.13
37 | A15G U25C A28G A47G A57G U58C | 0.23
38 | A15G U25C A45G U49A | 0.47
39 | A15G U25C A45G U60C | 0.1
40 | A15G U25C A45G U78C | 0
41 | A15G U25C A45G U80G | 0.33
42 | A15G U25C A57G | 0.26
43 | A15G U25C A64G | 0.11
44 | A15G U25C C29A C38G | 0.15
45 | A15G U25C C38U A45G U51C C71A U72A | 0.07
46 | A15G U25C C39U | 0.1
47 | A15G U25C C68G U72C U80C | 0.21
48 | A15G U25C G53A | 0.56

Row | Variant | self-cleavage
49 | A15G U25C G53U | 0.11
50 | A15G U25C U26A U72C | 0.06
51 | A15G U25C U26A U78C | 0.13
52 | A15G U25C U26C A28U U78A | 0.19
53 | A15G U25C U26G A57G A75G | 0.34
54 | A15G U25C U31C | 0.45
55 | A15G U25C U31C C32U | 0.3
56 | A15G U25C U31C U49A | 0.07
57 | A15G U25C U31C U72C | 0.42
58 | A15G U25C U41C U72C | 0.21
59 | A15G U25C U43A A64U U66C | 0.2
60 | A15G U25C U43C | 0.26
61 | A15G U25C U51A U60C A65C | 0.1
62 | A15G U25C U54A A56G U60A | 0.21
63 | A15G U25C U54C G55U U72A | 0.07
64 | A15G U25C U67C A75G | 0.11
65 | A15G U25C U76A | 0.41
66 | A15G U25G A56C A57G U67A | 0.06
67 | A15G U26A A28C A56G | 0.21
68 | A15G U26A A28U A45U U51A | 0.16
69 | A15G U26A A35C U41A U51C U74A | 0.1
70 | A15G U26A A35U U41C A57G | 0.31
71 | A15G U26A A45C G63A U67C A75G | 0.04
72 | A15G U26A A56U G61C | 0.16

Row | Variant | self-cleavage
73 | A15G U26A C34A U78C | 0.07
74 | A15G U26A C34U C37U C38U U69C | 0.05
75 | A15G U26A U31A C37A U49C A57G | 0.23
76 | A15G U26A U31C U48C | 0.08
77 | A15G U26A U41C A57G | 0.52
78 | A15G U26A U41C G52C G53A C59U U60C | 0.19
79 | A15G U26A U41C U51C U76G | 0.62
80 | A15G U26A U43C | 0.39
81 | A15G U26A U49A A56U A57G A64G | 0.19
82 | A15G U26A U49C U80A | 0.3
83 | A15G U26A U51A | 0.24
84 | A15G U26A U51C A57U | 0.24
85 | A15G U26A U54C A57G G63A A75G | 0.43
86 | A15G U26A U66G | 0.19
87 | A15G U26C A28G G52C U67C | 0.07
88 | A15G U26C A28G U69A A77G | 0.17
89 | A15G U26C A35U U60A U66C U80C | 0.08
90 | A15G U26C A45C U60C | 0.37
91 | A15G U26C A45U A56G | 0.12
92 | A15G U26C A45U U66A | 0.07
93 | A15G U26C A57G | 0.4
94 | A15G U26C A64C A65C | 0.17
95 | A15G U26C A75U C81G | 0.67
96 | A15G U26C C34A U49A A77G U80C | 0.06

Row | Variant | self-cleavage
97 | A15G U26C C34U U66C | 0.06
98 | A15G U26C G30A A65G U69A | 0.14
99 | A15G U26C G30U G33C A47G U69A U80C | 0.08
100 | A15G U26C G55A | 0.29
101 | A15G U26C U31A | 0.34
102 | A15G U26C U31C G33U | 0.22
103 | A15G U26C U41G A65G | 0.09
104 | A15G U26C U43A A47G U69C | 0.2
105 | A15G U26C U43A A56G | 0.11
106 | A15G U26C U43A U51C A57G U74C | 0
107 | A15G U26C U48C | 0.3
108 | A15G U26C U48C A57U | 0.05
109 | A15G U26C U48C U54C U76A | 0.28
110 | A15G U26C U49G | 0.27
111 | A15G U26C U54C | 0.48
112 | A15G U26C U54C U58C U60A | 0.34
113 | A15G U26C U54C U78C | 0.25
114 | A15G U26C U58C U69A | 0.21
115 | A15G U26C U80C | 0.57
116 | A15G U26G A35U U41A U51C U80C | 0.39
117 | A15G U26G C32A A56U U60C | 0.06
118 | A15G U26G C40A U41C | 0.06
119 | A15G U26G U41C U48C A65G U67C | 0
120 | A15G U26G U43C | 0.71

Row | Variant | self-cleavage
121 | A15G U31A A45G | 0.28
122 | A15G U31A A47U U66C | 0.04
123 | A15G U31A A56G | 0.36
124 | A15G U31A A56U A64G | 0.25
125 | A15G U31A A57G U78A | 0.74
126 | A15G U31A A64G U69A A75G | 0.08
127 | A15G U31A A64U | 0.42
128 | A15G U31A A75G | 0.77
129 | A15G U31A C39U U49G G53C | 0.07
130 | A15G U31A U41A U43A U54C U76C U78A | 0.07
131 | A15G U31A U41G U60C U78C | 0.12
132 | A15G U31A U51A | 0.69
133 | A15G U31A U67A | 0.3
134 | A15G U31C A45G U48C A77U | 0.16
135 | A15G U31C A45G U51A A56G U69A U76C | 0.07
136 | A15G U31C A64U | 0.19
137 | A15G U31C C32U A64C U67C | 0.06
138 | A15G U31C G33A A45G A57G U66C U80C | 0.15
139 | A15G U31C U41C U78C | 0.29
140 | A15G U31C U48C | 0.28
141 | A15G U31C U49C A56G | 0.3
142 | A15G U31C U51C A57U U60C | 0.11
143 | A15G U31C U54C | 0.22
144 | A15G U31C U60A A64G | 0.35

Row | Variant | self-cleavage
145 | A15G U31C U72C | 0.23
146 | A15G U31G U58C U74A | 0.79
147 | A15G U41A C62A U69A | 0.12
148 | A15G U41A C68A | 0.15
149 | A15G U41A U43C | 0.34
150 | A15G U41A U43C A57G | 0.12
151 | A15G U41A U48C A56U U80G | 0.22
152 | A15G U41A U69G | 0.26
153 | A15G U41A U72C | 0.55
154 | A15G U41A U74A | 0.45
155 | A15G U41A U74C | 0.15
156 | A15G U41C A45C | 0.35
157 | A15G U41C A45C U54A U80C | 0.51
158 | A15G U41C A45U A47G U80C | 0.45
159 | A15G U41C A45U G63A C68A | 0.17
160 | A15G U41C A47G U58A U72C | 0.65
161 | A15G U41C A56U | 0.15
162 | A15G U41C A57G U74C | 0.76
163 | A15G U41C A64G | 0.61
164 | A15G U41C A64G U78C | 0.46
165 | A15G U41C A77G | 1.06
166 | A15G U41C A77U U78C | 0.93
167 | A15G U41C C50G A64G | 0.06
